Here are results for 81 sequences from article PMC6602471.

This is one part of the list. At the low end of the ranking the order means little.

For the assay, the target named is T1, ETS1 (UniProt P14921).
T1 sequence: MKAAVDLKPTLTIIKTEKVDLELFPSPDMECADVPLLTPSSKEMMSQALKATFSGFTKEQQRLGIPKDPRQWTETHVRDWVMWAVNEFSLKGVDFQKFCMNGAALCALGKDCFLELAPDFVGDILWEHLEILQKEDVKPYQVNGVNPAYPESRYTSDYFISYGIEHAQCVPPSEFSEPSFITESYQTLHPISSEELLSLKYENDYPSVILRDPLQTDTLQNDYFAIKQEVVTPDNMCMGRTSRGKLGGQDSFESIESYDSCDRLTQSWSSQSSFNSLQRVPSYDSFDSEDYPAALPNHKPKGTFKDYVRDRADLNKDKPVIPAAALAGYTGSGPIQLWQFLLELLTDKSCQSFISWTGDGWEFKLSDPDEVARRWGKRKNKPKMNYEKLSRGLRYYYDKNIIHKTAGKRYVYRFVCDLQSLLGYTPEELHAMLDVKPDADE
Briefly: custom PBM. To be noted: custom protein-binding microarray; buffer, salt, pH and temperature not stated; high values mean tight binding; double strand, one strand shown.
For the sequence “CTGGGACTTGACCGAACTCTGCCACGTGGGTCGTTTGTCTTGATTCGCTTGACGCTGCTG”, the binding signal (log fluorescence intensity) amounted to 8.43.

Regarding “CTGGGACTTGACCCAACACTGCCACGTGGGTCGTTTGTCTTGATTCGCTTGACGCTGCTG”, the binding signal (log fluorescence intensity) was found to be 8.04. As for “GCCGGCTACCAGCTCCACCCACTTCAGGCCTTGTAGGTCTTGATTCGCTTGACGCTGCTG”, the binding signal (log fluorescence intensity) was 8.09. Regarding “CACAATTTTTACAGTAATGTAGCACACGTAACTCCTGTCTTGATTCGCTTGACGCTGCTG”, the binding signal (log fluorescence intensity) came to 8.28. With “TAAAGGGAAGACGGTAGTGGTAGTTCCGGGTATTAAGTCTTGATTCGCTTGACGCTGCTG” the figure was 8.7.

As for “CACAATTTTTACAGTAATGTAGCACGCGTAACTCCCGTCTTGATTCGCTTGACGCTGCTG”, the binding signal (log fluorescence intensity) is 8.13. Regarding “TCCGGCTACCAGCTCCACCCACGTCAGGCCTTGTAGGTCTTGATTCGCTTGACGCTGCTG”, the binding signal (log fluorescence intensity) came out at 8.09. With “GGAAAAAGGCCCAGGGCAACACCGGAAGTGGGCTTAGTCTTGATTCGCTTGACGCTGCTG” the figure was 12.2; with “TCCGGCTACCAGCTCCACCCACTTCAGCCCTTGTAGGTCTTGATTCGCTTGACGCTGCTG”, 8.15; with “CAGCATAGGACTTCTTCCCTGACGCAATTGATAACCGTCTTGATTCGCTTGACGCTGCTG”, 8.32. With “GCTGCTGCGGTGCATACCCCACCGGATGTGAACCCGGTCTTGATTCGCTTGACGCTGCTG” the figure was 10; with “GATTAATTTCTGCCCTTATTCGCACGTGCCAGAACAGTCTTGATTCGCTTGACGCTGCTG”, 8.14; with “CGGAAGTGTCGTAAACGTCGGATATCCGGTTCATCTGTCTTGATTCGCTTGACGCTGCTG”, 12.1. With “CGAAAAAGGCCCAGGGTAACACCGGAAGTGGGCTTAGTCTTGATTCGCTTGACGCTGCTG” the figure was 12; with “CTGGGACGTGACCCAACTCTGCCACGTGGGTCGTTTGTCTTGATTCGCTTGACGCTGCTG”, 8.25. Regarding “TCCGGCTACCAGCTCCACCCACTTCAAGCCTTGTAGGTCTTGATTCGCTTGACGCTGCTG”, the binding signal (log fluorescence intensity) turned out to be 8.4. For “GATTAATTTCTGCCCTTATCCGCACGTGCCATAACAGTCTTGATTCGCTTGACGCTGCTG” the value was 8.09; for “GCGTATAGGATCCCATCCAACACACGTGTTAAAATGGTCTTGATTCGCTTGACGCTGCTG”, 8.01.

Regarding “CTGGGACTTGACCCAACTCTGCCACGTGGGTCATTTGTCTTGATTCGCTTGACGCTGCTG”, the binding signal (log fluorescence intensity) was 8.21. For the sequence “CACAATTTTTACAGTAATGTAGCACCCGTAACTCCTGTCTTGATTCGCTTGACGCTGCTG”, the binding signal (log fluorescence intensity) worked out at 8.29.

In the case of “GTGTATAGGATCCCATCCAACACACTTGTTAAAATGGTCTTGATTCGCTTGACGCTGCTG”, the binding signal (log fluorescence intensity) came out at 8.08. For “TACTGACTTATATATGCGAATGCACATGAATCGACCGTCTTGATTCGCTTGACGCTGCTG”, the binding signal (log fluorescence intensity) was found to be 8.34.

Turning to “TAATGACTTATATATGCGAATGCACATGAATAGACCGTCTTGATTCGCTTGACGCTGCTG”, the binding signal (log fluorescence intensity) amounted to 8.29. In the case of “GTGGGACTTGACCCAACTCTGCCACGTGGGTCGTTTGTCTTGATTCGCTTGACGCTGCTG”, the binding signal (log fluorescence intensity) stood at 8.38. With “TACTGACTTAAATATGCGAATGCACATGAATAGACCGTCTTGATTCGCTTGACGCTGCTG” the figure was 8.34; with “GCTGCTGCGGTGCATACCCCACCGGATGTGACCACGGTCTTGATTCGCTTGACGCTGCTG”, 10.2; with “CACAATTTTTACTGTAATGTAGCACGCGTAACTCCTGTCTTGATTCGCTTGACGCTGCTG”, 8.34.

For the sequence “GTGTATAGGATCCCATCCAACACACGTCTTAAAATGGTCTTGATTCGCTTGACGCTGCTG”, the binding signal (log fluorescence intensity) was 8.3.

With “GTGTATAGGATTCCATCCAACACACGTGTTAAAATGGTCTTGATTCGCTTGACGCTGCTG”, the binding signal (log fluorescence intensity) was 8.03.

On to “CAGCATAGGACTTCTTCCCTGGAGCAATTGATAACCGTCTTGATTCGCTTGACGCTGCTG”, for which the binding signal (log fluorescence intensity) was determined as 8.18. On to “CTGGGACTTGACCCAACTCTGCCACTTGGGTCGTTTGTCTTGATTCGCTTGACGCTGCTG”, for which the binding signal (log fluorescence intensity) worked out at 8.2.

Consider “TACTGACTTATATATGCGAATGCACATGAAGAGACCGTCTTGATTCGCTTGACGCTGCTG”, for which the binding signal (log fluorescence intensity) came to 8.12. With “GGAAAAAGCCCCAGGGTAACACCGGAAGTGGGCTTAGTCTTGATTCGCTTGACGCTGCTG” the figure was 12.1; with “GATTAATTTTTGCCCTTATTCGCACGTGCCATAACAGTCTTGATTCGCTTGACGCTGCTG”, 8.16. With “TGTCGGGTAAGGGAATGTAGCTCACGTGAATGAAAAGTCTTGATTCGCTTGACGCTGCTG” the figure was 8.16; with “TCCGGCTACCAGCCCCACCCACTTCAGGCCTTGTAGGTCTTGATTCGCTTGACGCTGCTG”, 8.28. With “CAGCATCGGACTTCTTCCCTGAAGCAATTGATAACCGTCTTGATTCGCTTGACGCTGCTG” the figure was 8.4; with “CACAATTTTTACAGTAACGTAGCACGCGTAACTCCTGTCTTGATTCGCTTGACGCTGCTG”, 8.28; with “GATTAATTTCTCCCCTTATTCGCACGTGCCATAACAGTCTTGATTCGCTTGACGCTGCTG”, 8.18. As for “GTGTATAGGATCGCATCCAACACACGTGTTAAAATGGTCTTGATTCGCTTGACGCTGCTG”, the binding signal (log fluorescence intensity) turned out to be 8.4.

With “TACTGACTTACATATGCGAATGCACATGAATAGACCGTCTTGATTCGCTTGACGCTGCTG”, the binding signal (log fluorescence intensity) worked out at 8.22. Turning to “GTGTATAGGATCCCATCCAACACACGTGATAAAATGGTCTTGATTCGCTTGACGCTGCTG”, the binding signal (log fluorescence intensity) is 8.19.

Turning to “GGAAAAAGGCCCAGGGTAACATCGGAAGTGGGCTTAGTCTTGATTCGCTTGACGCTGCTG”, the binding signal (log fluorescence intensity) was 8.54. With “GTGTATTGGATCCCATCCAACACACGTGTTAAAATGGTCTTGATTCGCTTGACGCTGCTG” the figure was 8.08; with “CTGGGACTTGACCCAACTCTGCGACGTGGGTCGTTTGTCTTGATTCGCTTGACGCTGCTG”, 8.16; with “TAACGGGAAGACGGTTGTGGTAGTTCCGGGTATTAAGTCTTGATTCGCTTGACGCTGCTG”, 8.88. “GGAAAGAGGCCCAGGGTAACACCGGAAGTGGGCTTAGTCTTGATTCGCTTGACGCTGCTG”: the binding signal (log fluorescence intensity) is 11.9. On to “CACAATTCTTACAGTAATGTAGCACGCGTAACTCCTGTCTTGATTCGCTTGACGCTGCTG”, for which the binding signal (log fluorescence intensity) amounted to 8.04.

Regarding “CTGGGACTTGACCCAACGCTGCCACGTGGGTCGTTTGTCTTGATTCGCTTGACGCTGCTG”, the binding signal (log fluorescence intensity) is 8.22. With “GTGTATAGGATCCCATCCAACACAAGTGTTAAAATGGTCTTGATTCGCTTGACGCTGCTG” the figure was 8.17; with “CTGGGACTTGACCCAACTCTGCCACGTGGGTCTTTTGTCTTGATTCGCTTGACGCTGCTG”, 8.08; with “TCCGGCTACCAGCTCCACCCAGTTCAGGCCTTGTAGGTCTTGATTCGCTTGACGCTGCTG”, 8.27. With “GTGTATAGGATCCCATCCAACACACGTGTTAGAATGGTCTTGATTCGCTTGACGCTGCTG” the figure was 8.26; with “CTGGGACTTGACCCAACTCTGCTACGTGGGTCGTTTGTCTTGATTCGCTTGACGCTGCTG”, 8.29. With “GTGTATAGGATCCCATCCAACACTCGTGTTAAAATGGTCTTGATTCGCTTGACGCTGCTG” the figure was 8.3; with “GATTAATTTCTGCCCTTATTCGCACGTGCCATATCAGTCTTGATTCGCTTGACGCTGCTG”, 8.26; with “TAAAGGGAAGACGGTTGTGGTAATTCCGGGTATTAAGTCTTGATTCGCTTGACGCTGCTG”, 8.25. Turning to “GCTGCTGCGGTGCGTACCCCACCGGATGTGACCCCGGTCTTGATTCGCTTGACGCTGCTG”, the binding signal (log fluorescence intensity) was found to be 9.93.

As to “TACTGACTTATATATACGAATGCACATGAATAGACCGTCTTGATTCGCTTGACGCTGCTG”, the binding signal (log fluorescence intensity) was determined as 8.16.

With “CTGGGACTTGACCCAACTCTGCCAGGTGGGTCGTTTGTCTTGATTCGCTTGACGCTGCTG”, the binding signal (log fluorescence intensity) came out at 8.33. For “CCGCATAGGACTTCTTCCCTGAAGCAATTGATAACCGTCTTGATTCGCTTGACGCTGCTG”, the binding signal (log fluorescence intensity) amounted to 8.27. For the sequence “GGAAAAAGGCCCAGGGTAACACCGGAAGTGCGCTTAGTCTTGATTCGCTTGACGCTGCTG”, the binding signal (log fluorescence intensity) came to 11.7.

Consider “TAAAGGGAAGACGGTTGTGGTAGTTCGGGGTATTAAGTCTTGATTCGCTTGACGCTGCTG”, for which the binding signal (log fluorescence intensity) worked out at 8.21. With “GCTGCTGCGGTGCATACCCCACAGGATGTGACCCCGGTCTTGATTCGCTTGACGCTGCTG” the figure was 8.47. For “GGAAAACGGCCCAGGGTAACACCGGAAGTGGGCTTAGTCTTGATTCGCTTGACGCTGCTG” the value was 12; for “TACTGACTTATATATGCGAATGCACATGAATATACCGTCTTGATTCGCTTGACGCTGCTG”, 8.19; for “GGAAAAAGGCCCAGGCTAACACCGGAAGTGGGCTTAGTCTTGATTCGCTTGACGCTGCTG”, 12.1.

With “GATCAATTTCTGCCCTTATTCGCACGTGCCATAACAGTCTTGATTCGCTTGACGCTGCTG”, the binding signal (log fluorescence intensity) worked out at 8.18. Take “CGGAAGTGTCGTAAACGTCGGATATCCGGTTCTTTTGTCTTGATTCGCTTGACGCTGCTG”: the binding signal (log fluorescence intensity) turned out to be 11.9. For the sequence “TGTCGGGTCAGGGAATGTAGATCACGTGAATGAAAAGTCTTGATTCGCTTGACGCTGCTG”, the binding signal (log fluorescence intensity) turned out to be 8.29. With “TGTCGGGTAAGGGAATTTAGATCACGTGAATGAAAAGTCTTGATTCGCTTGACGCTGCTG” the figure was 8.18; with “CAGAAGTGTCGTAAACGTCGGATATCCGGTTCTTCTGTCTTGATTCGCTTGACGCTGCTG”, 12.1; with “CAGCATAGGACTTCTTCCCTGAAGCGATTGATAACCGTCTTGATTCGCTTGACGCTGCTG”, 8.3. With “CTTGGACTTGACCCAACTCTGCCACGTGGGTCGTTTGTCTTGATTCGCTTGACGCTGCTG”, the binding signal (log fluorescence intensity) worked out at 8.16. For “CGGAAGTGTCGTAAACGTCTGATATCCGGTTCTTCTGTCTTGATTCGCTTGACGCTGCTG” the value was 11.8. With “TACTGACTTATATATGCGCATGCACATGAATAGACCGTCTTGATTCGCTTGACGCTGCTG” the figure was 8.04; with “CAGCATAGGACTTCTTCCCTTAAGCAATTGATAACCGTCTTGATTCGCTTGACGCTGCTG”, 8.13. For “CACAATTTTTACAGTAATGTAGCACGCATAACTCCTGTCTTGATTCGCTTGACGCTGCTG” the value was 8.1; for “CAGCATAGGACTTCTGCCCTGAAGCAATTGATAACCGTCTTGATTCGCTTGACGCTGCTG”, 8.22; for “GCTGCTGCGGTGCATACCCCACCAGATGTGACCCCGGTCTTGATTCGCTTGACGCTGCTG”, 8.36. “TGTCGGGGAAGGGAATGTAGATCACGTGAATGAAAAGTCTTGATTCGCTTGACGCTGCTG”: the binding signal (log fluorescence intensity) was 8.23.
